Here are results for 24 sequences from the supplement of paper PMC11417369.

Some of the results follow.

The assay relates to PF3D7_0420300 AP2 domain 1 (GST-tagged). Put plainly: gcPBM binding intensity (ln(normalized median fluorescence intensity)); higher = stronger DNA binding. The gist of the method:
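The highest Masliner-normalised natural-log median intensity across replicate spots of either probe orientation is reported as binding intensity. GST-tagged P. falciparum DNA-binding domains expressed in E. coli were applied for 1 h to an Agilent 4 × 180k array of primer-extended double-stranded 36-bp intergenic genomic probes plus negative controls, and bound protein was detected with Alexa488 anti-GST antibody and scanned at 488 nm.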
As for “ATTAAGGAAAAATTATGTACACAAAAACATATAACA [XGTACX_site2901]”, the “gcPBM binding intensity (ln)” value was determined as 9.45.
To “TATACATGTTCAATTTGTACATATATAAATATATAT [XGTACX_site3554]” belongs 9.12; to “CTACACAAGCATTAAACACACAAAAGGGATACTTTG [CACACA_site1083]”, 9.68; to “ATTCAAAAAAATAAAATAAACATAAATAAACATAAA [TGCATGCA_negctrl_site390]”, 9.24.
On to “ATTTCCCACTTGTGTGTGCGCATGTGTATATATTTA [GTGCAC_site9949]”, for which the “gcPBM binding intensity (ln)” value amounted to 9.89.
As to “TACATATATATAATATGTACTTATAATATGTATTTA [XGTACX_site2162]”, the “gcPBM binding intensity (ln)” value came to 9.13.
As for “TTATTTGTTTGTTGGATGCTTTTTTTTTTTTTTTTT [CACACA_negctrl_site1697]”, the figure is 9.5; as for “AAAAGTGATAATAAGAGTACATAAAAAATTTATTAT [XGTACX_site8037]”, 9.34.
Turning to “TATTCTATACTATATTGTACTATAATATAATATACT [XGTACX_site797]”, the “gcPBM binding intensity (ln)” value is 9.27.
“AAATAATTTATAAATAAATACATTGTTACTTTTTCT [GTGCAC_negctrl_site639]”: the “gcPBM binding intensity (ln)” value was determined as 9.16.
For “TATGTGTATTTATTTGCATGTTGGTTGTATTTTTTC [TGCATGCA_site479]”, the “gcPBM binding intensity (ln)” value came out at 9.92.
Take “TCTTCATATGTTTACTGTACGAGAAAAAAAAAAAAA [XGTACX_site6418]”: the “gcPBM binding intensity (ln)” value was 8.88.
As for “TAATAAAATAAAAATTGTACATTTTATATTTATCAA [XGTACX_site5134]”, the figure is 8.91.
“AATGAAAAAAAAAAAAAAAAGAAGAAGCAAATGGTA [TGCATGCA_negctrl_site335]”: the “gcPBM binding intensity (ln)” value came to 9.58.
For “AGATTATTTGGACATGCATGTAAAAAAATACGTATA [TGCATGCA_site972]”, the “gcPBM binding intensity (ln)” value stood at 9.23.
For “ATAAATAATTATATATGTACACATTATGAATGGATA [XGTACX_site8336]”, the “gcPBM binding intensity (ln)” value came to 9.37.
Take “TAAAAAAATTCATGCACACGAAATAAAAAGCACCTT [CACACA_site4667]”: the “gcPBM binding intensity (ln)” value came out at 9.55.
To “TTTTCATTTTTTCGTTGTACATAAATAATATATATT [XGTACX_site856]” belongs 9.4; to “AATACATACATACATACACACATATATATATATTAT [CACACA_site3575]”, 9.82.
As for “AAACATAAATTTTATTGTACATTATATAGAATTTTC [XGTACX_site576]”, the “gcPBM binding intensity (ln)” value came out at 8.95.
As to “TTTTTTAAAAGATAATATTTTATTAATGTATTCTCA [GTGCAC_negctrl_site598]”, the “gcPBM binding intensity (ln)” value is 8.9.
Regarding “TTTTACTATACTTATGCACACAAGATATATACATAT [CACACA_site2968]”, the “gcPBM binding intensity (ln)” value amounted to 9.42.
As for “ACTAATTACTATAAAACACACATATATTTATTTATA [CACACA_site7263]”, the figure is 9.42; as for “CACATGTATTTATAGGTGCGTAAAAACACTTTATAT [GTGCAC_site9501]”, 9.26.
